For test [1], the target named is T1, FLAG-Pafah1b2 (mouse) (UniProt Q61206).
T1 sequence: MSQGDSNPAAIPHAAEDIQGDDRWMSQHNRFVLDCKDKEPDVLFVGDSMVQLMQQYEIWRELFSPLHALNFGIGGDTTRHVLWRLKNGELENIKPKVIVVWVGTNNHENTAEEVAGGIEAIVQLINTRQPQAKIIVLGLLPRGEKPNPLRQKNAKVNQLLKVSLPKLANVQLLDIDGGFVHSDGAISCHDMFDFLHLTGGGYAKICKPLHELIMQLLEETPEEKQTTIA
In words: co-IP; proteins co-expressed in transfected 293T cells; lysis in PBS, 5 mM EDTA, 1% Triton X-100, pH 7.4; antibodies against the tags 1-2 hours at 4°C, protein A/G agarose beads; Western blot (Fig. 1A, 1C, 2; the text says COS7 for Fig. 2).

The target of test [2] is T2, Pafah1b3-MYC (mouse) (UniProt Q61205).
T2 sequence: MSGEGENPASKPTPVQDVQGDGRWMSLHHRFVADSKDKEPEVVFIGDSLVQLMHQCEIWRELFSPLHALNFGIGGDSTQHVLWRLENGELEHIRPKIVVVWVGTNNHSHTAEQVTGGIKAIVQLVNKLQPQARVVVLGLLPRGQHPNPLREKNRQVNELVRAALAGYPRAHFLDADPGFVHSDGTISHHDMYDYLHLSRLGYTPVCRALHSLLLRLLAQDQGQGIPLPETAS
The description is as above.

Test [3] has as its target T3, FLAG-tagged Lis1, in vitro translated (mouse) (UniProt P63005).
T3 sequence (chain, 35S-labeled methionine): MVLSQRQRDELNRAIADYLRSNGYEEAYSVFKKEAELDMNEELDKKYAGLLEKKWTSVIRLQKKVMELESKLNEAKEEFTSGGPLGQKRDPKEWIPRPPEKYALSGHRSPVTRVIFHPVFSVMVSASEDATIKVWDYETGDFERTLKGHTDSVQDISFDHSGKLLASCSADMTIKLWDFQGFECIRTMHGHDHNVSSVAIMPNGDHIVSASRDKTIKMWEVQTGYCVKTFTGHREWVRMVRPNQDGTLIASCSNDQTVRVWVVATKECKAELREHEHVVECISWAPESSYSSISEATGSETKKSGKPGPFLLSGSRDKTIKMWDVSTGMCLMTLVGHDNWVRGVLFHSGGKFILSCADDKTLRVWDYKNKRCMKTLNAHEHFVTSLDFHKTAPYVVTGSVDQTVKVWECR
The test can be described thus: co-IP; proteins translated in vitro (TNT), 35S-labelled, combined and immunoprecipitated with FLAG antibody (Fig. 1B) or antibodies against Dab1, Pafah1b2 or Pafah1b3 (Fig. 1D); autoradiography.

For test [4], the target named is T4, Pafah1b3, in vitro translated (mouse) (UniProt Q61205).
T4 sequence (chain, 35S-labeled methionine): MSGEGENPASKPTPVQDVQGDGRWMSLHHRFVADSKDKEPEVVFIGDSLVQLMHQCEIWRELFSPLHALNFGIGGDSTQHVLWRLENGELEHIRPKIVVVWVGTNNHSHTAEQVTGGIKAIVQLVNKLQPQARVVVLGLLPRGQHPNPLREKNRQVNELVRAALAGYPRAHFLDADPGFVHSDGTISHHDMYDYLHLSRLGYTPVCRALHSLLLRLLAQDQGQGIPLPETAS
The test is described as above.

Test [5] has as its target T5, Pafah1b2, in vitro translated (mouse) (UniProt Q61206).
T5 sequence (chain, 35S-labeled methionine): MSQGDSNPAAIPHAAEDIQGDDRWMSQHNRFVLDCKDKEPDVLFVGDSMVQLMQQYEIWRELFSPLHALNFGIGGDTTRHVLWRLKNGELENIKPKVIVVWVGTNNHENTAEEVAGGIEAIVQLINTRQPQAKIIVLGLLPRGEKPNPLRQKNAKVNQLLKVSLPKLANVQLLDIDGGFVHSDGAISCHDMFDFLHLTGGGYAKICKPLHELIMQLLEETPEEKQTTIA
Described as above.

The target in test [6] is in vitro-translated VLDLR (human) (UniProt P98155). In words: co-IP; competition: in vitro translated (TNT), 35S-labelled proteins; equal amounts (50 μl) of VLDLR and one partner with increasing amounts of the competitor; immunoprecipitated with polyclonal antibodies against VLDLR; autoradiography.
Test [7] has as its target VLDLR-GFP fusion protein (human) (UniProt P98155). In words: co-IP; proteins co-expressed in transfected 293T cells; lysis in PBS, 5 mM EDTA, 1% Triton X-100, pH 7.4; antibodies against the tags 1-2 hours at 4°C, protein A/G agarose beads; Western blot (Fig. 1A, 1C, 2; the text says COS7 for Fig. 2). In general terms: In western blotting, separated proteins are transferred to a membrane and probed.

The target in test [8] is HA-tagged VLDLR (human) (UniProt P98155). Described as above.

Results are given in words; binding and its absence hold for the method and conditions named. Binding seen in cells or lysates may run through a third protein. Some entries that bind do so weakly or less than the wild type. For part of these data: Where a sequence is shown, tags or fusion partners need not be part of it.

As to “VLDLR(AAxA)-GFP (from UniProt P98155-1 28-873) (receptor)”, the binding entry in test [1] and in test [2] was “no binding” throughout.
“in vitro-translated VLDLR (from UniProt P98155-1 1-873) (receptor)”: the binding result is reported as “no binding” in test [3], “binds” in test [4] and “binds” in test [5].
On to “VLDLRΔ809-GFP (from UniProt P98155-1 28-809) (domain or fragment)”, for which the binding entry in test [1] and in test [2] was “no binding” in each case.
With “VLDLR-GFP fusion protein (from UniProt P98155-1 28-873) (receptor)”, the binding entry in test [1] and in test [2] was “binds” in each case.
Regarding “VLDLRΔ855-GFP (from UniProt P98155-1 28-855) (domain or fragment)”, the binding entry in test [1] and in test [2] was “binds” in each case.
For the molecule “VLDLRΔ825-GFP (from UniProt P98155-1 28-825) (domain or fragment)”, the binding result in test [1] and in test [2] was “no binding” throughout.
As for “HA-tagged VLDLR (from UniProt P98155-1 28-873) (receptor)”, in test [2], the binding result was “binds”.

B1: Dab1, in vitro translated (protein, UniProt P97318-2 1-555)
chain: MSTETELQVAVKTSAKKDSRKKGQDRSEATLIKRFKGEGVRYKAKLIGIDEVSAARGDKLCQDSMMKLKGVVAGARSKGEHKQKIFLTISFGGIKIFDEKTGALQHHHAVHEISYIAKDITDHRAFGYVCGKEGNHRFVAIKTAQAAEPVILDLRDLFQLIYELKQREELEKKAQKDKQCEQAVYQTILEEDVEDPVYQYIVFEAGHEPIRDPETEENIYQVPTSQKKEGVYDVPKSQPVSAVTQLELFGDMSTPPDITSPPTPATPGDAFLPSSSQTLPGSADVFGSMSFGTAAVPSGYVAMGAVLPSFWGQQPLVQQQIAMGAQPPVAQVIPGAQPIAWGQPGLFPATQQAWPTVAGQFPPAAFMPTQTVMPLAAAMFQGPLTPLATVPGTNDSARSSPQSDKPRQKMGKESFKDFQMVQPPPVPSRKPDQPSLTCTSEAFSSYFNKVGVAQDTDDCDDFDISQLNLTPVTSTTPSTNSPPTPAPRQSSPSKSSASHVSDPTADDIFEEGFESPSKSEEQEAPDGSQASSTSDPFGEPSGEPSGDNISPQDGS
modifications: 35S-labeled methionine
As to B1, in test [6], the binding result is on record as “binds”.

B2: Pafah1b3, in vitro translated (protein, UniProt Q61205 1-232)
chain: MSGEGENPASKPTPVQDVQGDGRWMSLHHRFVADSKDKEPEVVFIGDSLVQLMHQCEIWRELFSPLHALNFGIGGDSTQHVLWRLENGELEHIRPKIVVVWVGTNNHSHTAEQVTGGIKAIVQLVNKLQPQARVVVLGLLPRGQHPNPLREKNRQVNELVRAALAGYPRAHFLDADPGFVHSDGTISHHDMYDYLHLSRLGYTPVCRALHSLLLRLLAQDQGQGIPLPETAS
modifications: 35S-labeled methionine
In the case of B2, in test [6], the binding result was “binds”.

B3: Pafah1b3-MYC (protein, UniProt Q61205 1-232)
chain: MSGEGENPASKPTPVQDVQGDGRWMSLHHRFVADSKDKEPEVVFIGDSLVQLMHQCEIWRELFSPLHALNFGIGGDSTQHVLWRLENGELEHIRPKIVVVWVGTNNHSHTAEQVTGGIKAIVQLVNKLQPQARVVVLGLLPRGQHPNPLREKNRQVNELVRAALAGYPRAHFLDADPGFVHSDGTISHHDMYDYLHLSRLGYTPVCRALHSLLLRLLAQDQGQGIPLPETAS
In the case of B3, the binding result in test [7] and in test [8] was “binds” in each case.

The values are drawn from article PMC1800349.
